For part of its entries the source gives two or more results. This is not the full list of results. An entry can have further records. Values given together are repeated measurements (runs, samples, wells, individuals or studies). Counts like (3×) say how often a value occurs here.
System: 967376-340-R-J2-PDC multicell spheroid viability
Assay: Anticancer human tumor 967376-340-R-J2-PDC patient-derived colon adenocarcinoma cell line growth inhibition [PI3K]
Settings: for IC50: compound alone; for viability, T/C: stronger effect = lower value
Source text: Combinatorial screen of targeted agents with the PI3K inhibitors inavolisib, alpelisib, duvelisib, and copanlisib in multi-cell type tumor spheroids
A high-throughput screen of multi-cell type tumor spheroids was designed to identify active combinations of targeted small molecules and PI3K pathway inhibitors. Complex spheroids include a stromal component modeled by human endothelial cells (HUVEC) and fibroblasts modeled by human mesenchymal stem cells (MSCs). The concentration ranges selected for each drug and investigational agent were based upon clinically achievable concentrations if the clinical Cmax of the agent was known.
Compounds. The drugs and investigational agents: inavolisib (NSC800729), alpelisib (NSC765974), duvelisib (NSC772469), copanlisib (NSC816437), ipatasertib (NSC767898), afuresertib (NSC778305), talazoparib (NSC767125), sapanisertib (NSC764658), selumetinib (NSC741078), tovorafenib (DAY101, NSC766906), vemurafenib (NSC761431), ravoxertinib (NSC781343), sotorasib (NSC818433), MRTX1133 (NSC 836407), abemaciclib (NSC 768073), palbociclib (NSC758247), venetoclax (NSC 766270), SY5609 (NSC837396), enzalutamide (NSC755605), and darolutamide (NSC825331), were obtained from the National Cancer Institute (NCI) Developmental Therapeutics Program Chemical Repository. The FDA-approved anticancer drug set is available from the NCI Developmental Therapeutics Program. […] The stock solutions were prepared in dimethyl sulfoxide (DMSO, Sigma-Aldrich, St. Louis, MO, cat. D2650) at 800-fold the tested concentration and stored at -70 degrees C prior to their use. All drugs and investigational agents were tested over a range starting from a high concentration at or near the clinical Cmax and decreasing in half-log increments. If the clinical Cmax for an agent had not been determined, the highest concentration tested was 10 microM.
Cell Culture. All cells were maintained in an incubator at 37 degrees C and 5% CO2 with 95% humidity. The PDC lines were cultured according to standard operating procedures established by the NCI PDMR (https://pdmr.cancer.gov/sops/default.htm). All PDCs were thawed and cultured in Matrigel-coated flasks prepared with a working solution of 1X Ham's F-12 nutrient mix, without supplementation (Invitrogen, Waltham, MA, cat. 11765054), 100 U/mL penicillin-streptomycin (Invitrogen, cat. 15140122), and 2.5% Matrigel (Corning Inc., Corning, NY, cat. 354248) for the first three passages. The 354836-022-R-J1-PDC, 475296-252-R-J1-PDC, and 997726-040-R-J2-PDC lines were cultured in 6A media, which includes advanced DMEM/F-12 (Thermo Fisher Scientific, cat. 12634028), 10 mM HEPES (Thermo Fisher Scientific, cat. 15630080), 1X GlutaMAX supplement (Thermo Fisher Scientific, cat. 35050061), 0.1 mg/mL primocin (InvivoGen, San Diego, CA, cat. ant-pm-2), 10% defined fetal bovine serum, heat inactivated (HyClone Laboratories Inc., Logan, UT, cat. SH30070.03HI), 50% L-WRN conditioned media (ATCC, cat. CRL-3276), 1.25 mM N-Acetyl-L-cysteine (Sigma-Aldrich, cat. A9165), 10 mM nicotinamide (Sigma-Aldrich, cat. N0636), 1X B-27 supplement (Thermo Fisher Scientific, cat. 17504044), 1X N-2 supplement (Thermo Fisher Scientific, cat. 17502048), and 10 microM Y-27632 dihydrochloride (Tocris Bioscience, Bristol, United Kingdom, cat. 1254). The 624824-186-R-J2-PDC line was cultured in 6C/Colon 1B media, which includes all 6A media components plus 50 ng/mL human EGF recombinant protein (Thermo Fisher Scientific, cat. PHG0311). […]

[1] = combination with PI3K inhibitor, run of 06/12/2023
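Also: spheroids exposed to agents for 7 days before read-out.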
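For viability, T/C in this document: luminescence used as surrogate of cell viability.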

For Cc1nc(NC(=O)N2CCCC2C(N)=O)sc1-c1ccnc(C(C)(C)C(F)(F)F)c1 (centres undefined), the IC50 [1] was > 10 µM, 7.99 µM, 8.88 µM, 9 µM, 6.85 µM, 7.34 µM, 4.57 µM and the viability, T/C (compound alone 0.0316 µM) was 76.8, 76.5, 97.5, 98, 101, 92.3, 80.5, 68.2%.
For CC(Nc1ncnc2nc[nH]c12)c1cc2cccc(Cl)c2c(=O)n1-c1ccccc1 (centres undefined), the viability, T/C (compound alone 0.1 µM) was 89.1, 84.5, 88, 75.5, 97.3, 112, 96.9, 101%, the viability, T/C (compound alone 3.16 µM) was 107, 86.4, 82.4, 83.7, 89.5, 110, 102, 95.1% and the viability, T/C (compound alone 10 µM) was 103, 77.9, 86.8, 84.3, 85.8, 79.4, 106, 88%.
For CC(Cn1ccc(-c2ccc(C#N)c(Cl)c2)n1)NC(=O)c1cc(C(C)O)[nH]n1 (centres undefined), the viability, T/C (compound alone 10 µM) was 82.9, 117, 94.8, 84.6%.
Cn1nccc1Nc1nccc(-c2ccn(C(CO)c3ccc(Cl)c(F)c3)c(=O)c2)n1 (centres undefined) was tested, and the viability, T/C (compound alone 1 µM) was 100, 75, 105, 112% and the viability, T/C (compound alone 3.16 µM) was 68.3, 109, 113, 111%.
For C#Cc1c(F)ccc2cc(O)cc(-c3ncc4c(N5CC6CCC(C5)N6)nc(OCC56CCCN5CC(F)C6)nc4c3F)c12 (centres undefined), the viability, T/C (compound alone 0.316 µM) was 76.9, 113, 105, 84.9%, the viability, T/C (compound alone 1 µM) was 78.6, 81.6, 106, 85.6% and the viability, T/C (compound alone 10 µM) was 86.6, 60.9, 74.7, 67.8%.
With Cn1ncc(Cl)c1-c1cc(C(=O)NC(CN)Cc2cccc(F)c2)sc1Cl (centres undefined) the viability, T/C (compound alone 0.1 µM) was 104, 91.7, 84.1, 78.5% and the viability, T/C (compound alone 1 µM) was 65.4, 72.8, 74.9, 104%.
In the case of CC1(C)CCC(Nc2ncc(C(F)(F)F)c(-c3c[nH]c4c(P(C)(C)=O)c(C#N)ccc34)n2)CN1 (centres undefined), the viability, T/C (compound alone 0.1 µM) is reported as 75, 90.8, 90.5, 101%.
C[C@@H](NC(=O)c1ncnc(N)c1Cl)c1ncc(C(=O)Nc2cc(C(F)(F)F)c(Cl)cn2)s1 was tested, and the viability, T/C (compound alone 0.0316 µM) was 104, 86.2, 69.4, 108%.
In the case of CC(C)n1nc(-c2ccc3oc(N)nc3c2)c2c(N)ncnc21, the viability, T/C (compound alone 0.001 µM) is reported as 112, 95.3, 89.7, 74.5% and the viability, T/C (compound alone 0.01 µM) is reported as 78.3, 60.9, 103, 93.4%.
CC1(C)CCC(CN2CCN(c3ccc(C(=O)NS(=O)(=O)c4ccc(NCC5CCOCC5)c([N+](=O)[O-])c4)c(Oc4cnc5[nH]ccc5c4)c3)CC2)=C(c2ccc(Cl)cc2)C1 was tested, and the viability, T/C (compound alone 10 µM) was 53.2, 72.1, 91.3, 64.2%.
For CCCS(=O)(=O)Nc1ccc(F)c(C(=O)c2c[nH]c3ncc(-c4ccc(Cl)cc4)cc23)c1F, the viability, T/C (compound alone 1 µM) was 72.6, 100, 117, 105%.
COc1c(OCCCN2CCOCC2)ccc2c3n(c(=NC(=O)c4cnc(N)nc4)nc12)CCN3 was tested, and the viability, T/C (compound alone 0.00316 µM) was 78.8, 77.5, 76.9, 97.7 (2×), 87.2, 90.6, 107%.
CC(Nc1ccc2c(c1)OCCn1cc(N3C(=O)OCC3C(F)F)nc1-2)C(N)=O (centres undefined) was tested, and the IC50 [1] was 890 nM, > 1 µM, 809 nM, 777 nM, the viability, T/C (compound alone 0.00316 µM) was 94.5 (2×), 95.6, 110, 78.8, 84.5, 88.8% and the viability, T/C (compound alone 0.01 µM) was 89.8, 84.2, 89.1, 82.8, 106, 96.3, 75.8%.
In the case of Cn1cnc2c(F)c(Nc3ccc(Br)cc3Cl)c(C(=O)NOCCO)cc21, the IC50 is reported as 807 nM, 612 nM, > 3 µM, 2.14 µM, the viability, T/C (compound alone 0.3 µM) is reported as 69.9, 59.5, 90.2, 81.2% and the viability, T/C (compound alone 0.949 µM) is reported as 48.8, 44.7, 75.8, 71.1%. For the same compound, the viability, T/C (compound alone 3 µM) was 20.8, 18.1, 53.3, 41.2%.
CNC(=O)c1ccc(N2C(=S)N(c3ccc(C#N)c(C(F)(F)F)c3)C(=O)C2(C)C)cc1F was tested, and the viability, T/C (compound alone 0.0316 µM) was 95.7, 120, 100, 89.9% and the viability, T/C (compound alone 3.16 µM) was 121, 111, 99.7, 136%.

— PubChem BioAssay AID1963962 (Molecular Pharmacology Branch, DTP, NCI, 2024)
